For test [1], the target named is HSF2 (heat-shock factor 2), endogenous mouse (mouse (endogenous in embryonic cortex and N2A)) (UniProt P38533). The test is described as follows: co-IP; endogenous proteins; mouse embryonic cortex (E13, E15) lysed in Lysis buffer A (25 mM Hepes pH 8, 100 mM NaCl, 5 mM EDTA, Triton X-100 0.5%); IP overnight with anti-HSF2, non-relevant IgG as negative control; immunoblot for CBP and EP300.

Amino acid sequences for entries named in this document (tags omitted). A change or cut given only in a name is not applied to a line headed by its entry. Residues count along the entry.
UniProt P38533: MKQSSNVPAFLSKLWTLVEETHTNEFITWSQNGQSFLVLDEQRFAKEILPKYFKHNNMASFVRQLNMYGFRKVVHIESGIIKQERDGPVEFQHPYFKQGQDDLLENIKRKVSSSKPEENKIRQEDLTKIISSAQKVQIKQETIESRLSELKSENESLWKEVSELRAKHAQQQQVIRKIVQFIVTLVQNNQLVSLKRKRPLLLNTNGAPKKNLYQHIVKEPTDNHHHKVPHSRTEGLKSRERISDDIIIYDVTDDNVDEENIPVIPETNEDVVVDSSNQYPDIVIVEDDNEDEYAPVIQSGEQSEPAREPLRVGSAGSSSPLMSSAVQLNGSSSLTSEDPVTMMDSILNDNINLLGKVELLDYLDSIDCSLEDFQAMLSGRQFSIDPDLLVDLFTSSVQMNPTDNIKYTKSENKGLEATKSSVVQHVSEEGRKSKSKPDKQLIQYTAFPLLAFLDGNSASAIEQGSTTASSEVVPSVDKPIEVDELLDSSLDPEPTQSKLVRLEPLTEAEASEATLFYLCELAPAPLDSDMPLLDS
UniProt Q03933: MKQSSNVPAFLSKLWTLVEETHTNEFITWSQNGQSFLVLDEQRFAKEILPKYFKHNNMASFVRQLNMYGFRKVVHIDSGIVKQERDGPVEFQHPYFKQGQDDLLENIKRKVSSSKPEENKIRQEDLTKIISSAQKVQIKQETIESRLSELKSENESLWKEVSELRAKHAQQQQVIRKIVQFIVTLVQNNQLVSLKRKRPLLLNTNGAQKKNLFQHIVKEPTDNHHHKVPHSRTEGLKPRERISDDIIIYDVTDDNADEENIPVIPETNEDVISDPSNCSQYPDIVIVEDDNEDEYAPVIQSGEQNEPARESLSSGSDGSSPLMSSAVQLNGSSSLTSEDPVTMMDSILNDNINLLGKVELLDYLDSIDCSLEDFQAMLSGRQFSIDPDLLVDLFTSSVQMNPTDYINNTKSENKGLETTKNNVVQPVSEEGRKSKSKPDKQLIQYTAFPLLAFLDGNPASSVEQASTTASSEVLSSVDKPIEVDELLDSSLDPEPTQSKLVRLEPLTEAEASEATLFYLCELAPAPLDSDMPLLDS
UniProt P45481: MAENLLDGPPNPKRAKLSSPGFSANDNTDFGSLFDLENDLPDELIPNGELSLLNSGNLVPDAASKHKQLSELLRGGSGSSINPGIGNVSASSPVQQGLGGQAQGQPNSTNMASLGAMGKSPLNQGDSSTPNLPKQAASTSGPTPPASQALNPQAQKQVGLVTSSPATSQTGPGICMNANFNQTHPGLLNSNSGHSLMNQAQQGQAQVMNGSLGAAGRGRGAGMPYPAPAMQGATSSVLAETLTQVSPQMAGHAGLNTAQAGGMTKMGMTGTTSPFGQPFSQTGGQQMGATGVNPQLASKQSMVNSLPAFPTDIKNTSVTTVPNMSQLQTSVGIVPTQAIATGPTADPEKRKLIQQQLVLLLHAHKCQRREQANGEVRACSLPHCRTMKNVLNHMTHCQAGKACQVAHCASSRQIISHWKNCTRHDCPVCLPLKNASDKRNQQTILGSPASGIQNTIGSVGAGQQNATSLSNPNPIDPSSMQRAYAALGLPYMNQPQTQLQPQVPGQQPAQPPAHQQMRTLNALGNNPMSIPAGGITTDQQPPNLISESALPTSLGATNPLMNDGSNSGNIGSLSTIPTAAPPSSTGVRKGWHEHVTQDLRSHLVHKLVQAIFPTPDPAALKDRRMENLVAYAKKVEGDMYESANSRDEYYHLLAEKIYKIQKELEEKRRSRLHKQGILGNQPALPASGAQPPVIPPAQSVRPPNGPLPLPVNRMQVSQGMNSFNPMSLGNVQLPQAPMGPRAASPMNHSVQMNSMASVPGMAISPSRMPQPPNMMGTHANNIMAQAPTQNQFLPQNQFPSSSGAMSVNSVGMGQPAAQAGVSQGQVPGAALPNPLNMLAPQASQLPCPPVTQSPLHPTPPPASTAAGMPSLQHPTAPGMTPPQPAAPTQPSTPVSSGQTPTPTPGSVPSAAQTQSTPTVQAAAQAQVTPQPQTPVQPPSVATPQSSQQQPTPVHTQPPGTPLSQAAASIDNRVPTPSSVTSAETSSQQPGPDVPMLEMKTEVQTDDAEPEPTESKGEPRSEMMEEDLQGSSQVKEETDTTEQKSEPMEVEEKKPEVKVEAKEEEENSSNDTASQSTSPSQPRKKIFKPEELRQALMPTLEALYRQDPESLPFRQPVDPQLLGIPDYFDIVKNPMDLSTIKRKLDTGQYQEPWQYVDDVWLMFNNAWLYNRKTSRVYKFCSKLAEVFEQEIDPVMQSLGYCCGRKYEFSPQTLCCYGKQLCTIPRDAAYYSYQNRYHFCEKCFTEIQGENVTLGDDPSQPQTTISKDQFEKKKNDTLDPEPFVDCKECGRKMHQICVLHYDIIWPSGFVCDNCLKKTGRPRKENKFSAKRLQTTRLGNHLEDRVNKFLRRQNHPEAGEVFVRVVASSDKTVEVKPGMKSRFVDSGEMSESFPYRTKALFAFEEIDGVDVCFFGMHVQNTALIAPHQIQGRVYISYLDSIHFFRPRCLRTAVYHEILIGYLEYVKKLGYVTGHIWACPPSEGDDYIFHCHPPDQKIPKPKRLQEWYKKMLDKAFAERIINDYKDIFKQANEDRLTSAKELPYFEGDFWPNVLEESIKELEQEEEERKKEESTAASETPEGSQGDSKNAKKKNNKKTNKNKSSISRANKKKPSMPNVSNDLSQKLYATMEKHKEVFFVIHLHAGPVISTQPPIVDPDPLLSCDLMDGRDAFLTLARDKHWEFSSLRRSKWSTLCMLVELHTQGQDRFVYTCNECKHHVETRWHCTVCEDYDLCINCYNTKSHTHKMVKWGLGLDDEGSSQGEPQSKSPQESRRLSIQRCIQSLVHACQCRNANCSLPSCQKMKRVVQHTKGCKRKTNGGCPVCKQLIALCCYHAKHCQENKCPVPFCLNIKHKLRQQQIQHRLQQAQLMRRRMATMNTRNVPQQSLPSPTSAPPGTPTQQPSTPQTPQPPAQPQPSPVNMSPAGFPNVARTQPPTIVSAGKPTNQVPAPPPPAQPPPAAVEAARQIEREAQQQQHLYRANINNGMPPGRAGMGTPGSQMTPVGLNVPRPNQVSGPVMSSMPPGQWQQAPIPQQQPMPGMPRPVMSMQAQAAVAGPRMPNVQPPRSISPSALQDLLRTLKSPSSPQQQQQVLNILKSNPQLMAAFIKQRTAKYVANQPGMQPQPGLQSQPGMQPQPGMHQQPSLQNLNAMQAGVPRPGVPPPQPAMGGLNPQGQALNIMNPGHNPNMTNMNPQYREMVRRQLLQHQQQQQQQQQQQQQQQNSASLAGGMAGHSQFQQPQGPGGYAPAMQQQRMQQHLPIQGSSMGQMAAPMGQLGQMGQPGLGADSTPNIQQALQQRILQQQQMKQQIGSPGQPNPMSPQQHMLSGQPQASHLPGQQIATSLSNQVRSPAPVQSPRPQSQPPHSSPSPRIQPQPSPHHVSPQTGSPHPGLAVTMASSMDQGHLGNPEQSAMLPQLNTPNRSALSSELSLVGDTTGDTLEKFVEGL
CBP KIX-GST, wild type: residues 586-665 of P45481
UniProt Q09472: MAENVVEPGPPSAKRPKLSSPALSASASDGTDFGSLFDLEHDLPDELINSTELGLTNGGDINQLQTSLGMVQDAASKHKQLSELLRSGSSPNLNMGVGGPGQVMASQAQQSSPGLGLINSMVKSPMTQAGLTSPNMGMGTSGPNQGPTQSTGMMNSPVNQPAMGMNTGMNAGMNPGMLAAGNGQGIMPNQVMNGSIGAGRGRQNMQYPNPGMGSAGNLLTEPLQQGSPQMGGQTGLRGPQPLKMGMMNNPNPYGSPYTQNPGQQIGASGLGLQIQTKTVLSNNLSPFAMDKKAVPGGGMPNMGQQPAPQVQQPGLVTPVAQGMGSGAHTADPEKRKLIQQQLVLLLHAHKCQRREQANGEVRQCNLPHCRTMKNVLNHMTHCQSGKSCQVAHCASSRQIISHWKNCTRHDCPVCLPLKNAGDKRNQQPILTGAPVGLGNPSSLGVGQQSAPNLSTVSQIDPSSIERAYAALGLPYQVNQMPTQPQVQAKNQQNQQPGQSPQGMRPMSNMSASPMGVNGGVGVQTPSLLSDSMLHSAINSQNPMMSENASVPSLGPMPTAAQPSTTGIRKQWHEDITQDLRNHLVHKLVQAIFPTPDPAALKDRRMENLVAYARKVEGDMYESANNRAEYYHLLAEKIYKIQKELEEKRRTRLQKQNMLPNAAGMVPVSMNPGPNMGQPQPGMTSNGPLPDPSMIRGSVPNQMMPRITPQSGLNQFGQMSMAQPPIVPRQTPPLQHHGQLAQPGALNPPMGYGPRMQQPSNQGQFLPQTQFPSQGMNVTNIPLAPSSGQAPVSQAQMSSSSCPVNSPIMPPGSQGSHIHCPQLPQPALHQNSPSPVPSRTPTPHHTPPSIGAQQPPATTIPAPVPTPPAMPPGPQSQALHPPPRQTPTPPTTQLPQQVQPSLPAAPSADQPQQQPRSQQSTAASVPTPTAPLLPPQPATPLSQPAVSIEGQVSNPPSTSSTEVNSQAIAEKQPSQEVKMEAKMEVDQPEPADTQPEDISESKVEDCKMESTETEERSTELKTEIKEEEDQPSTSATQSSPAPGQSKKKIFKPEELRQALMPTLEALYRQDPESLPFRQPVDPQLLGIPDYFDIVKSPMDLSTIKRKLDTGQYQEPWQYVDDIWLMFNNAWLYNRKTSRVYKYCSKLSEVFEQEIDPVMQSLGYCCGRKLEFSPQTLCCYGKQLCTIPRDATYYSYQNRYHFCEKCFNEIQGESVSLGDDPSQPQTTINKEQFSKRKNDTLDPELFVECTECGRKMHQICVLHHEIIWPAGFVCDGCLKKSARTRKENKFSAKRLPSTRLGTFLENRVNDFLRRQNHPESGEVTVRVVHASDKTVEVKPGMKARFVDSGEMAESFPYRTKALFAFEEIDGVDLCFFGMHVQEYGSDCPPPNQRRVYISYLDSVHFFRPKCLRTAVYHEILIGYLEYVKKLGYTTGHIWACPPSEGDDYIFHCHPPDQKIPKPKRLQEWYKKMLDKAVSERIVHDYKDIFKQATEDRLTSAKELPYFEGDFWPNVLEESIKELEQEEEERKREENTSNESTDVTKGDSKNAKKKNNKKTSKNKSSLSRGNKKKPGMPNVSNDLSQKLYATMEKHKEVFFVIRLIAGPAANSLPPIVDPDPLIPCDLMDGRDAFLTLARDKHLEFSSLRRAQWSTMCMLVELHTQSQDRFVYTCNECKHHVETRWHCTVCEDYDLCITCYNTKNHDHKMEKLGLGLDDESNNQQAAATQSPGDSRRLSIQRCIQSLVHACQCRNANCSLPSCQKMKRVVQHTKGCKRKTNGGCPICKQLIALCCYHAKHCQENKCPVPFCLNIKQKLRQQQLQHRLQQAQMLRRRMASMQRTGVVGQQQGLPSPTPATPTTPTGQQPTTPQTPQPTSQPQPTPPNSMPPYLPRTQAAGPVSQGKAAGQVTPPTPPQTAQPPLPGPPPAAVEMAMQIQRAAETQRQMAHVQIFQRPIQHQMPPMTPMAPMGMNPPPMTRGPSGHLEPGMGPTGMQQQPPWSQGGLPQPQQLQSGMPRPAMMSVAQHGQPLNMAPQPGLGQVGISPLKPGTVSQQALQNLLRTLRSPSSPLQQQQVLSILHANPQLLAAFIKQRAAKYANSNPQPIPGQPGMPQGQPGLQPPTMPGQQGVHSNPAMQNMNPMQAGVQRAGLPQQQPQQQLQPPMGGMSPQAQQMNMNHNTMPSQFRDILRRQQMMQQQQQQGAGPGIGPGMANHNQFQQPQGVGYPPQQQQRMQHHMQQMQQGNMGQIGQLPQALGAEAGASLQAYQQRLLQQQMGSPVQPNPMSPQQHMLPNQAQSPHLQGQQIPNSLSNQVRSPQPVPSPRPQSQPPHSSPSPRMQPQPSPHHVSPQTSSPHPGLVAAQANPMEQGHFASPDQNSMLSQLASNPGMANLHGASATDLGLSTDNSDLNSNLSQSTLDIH

For test [2] the target is unchanged. Briefly: co-IP; endogenous proteins; N2A cells lysed in Lysis buffer A; IP with anti-HSF2; immunoblot.
The target of test [3] is biotinylated recombinant full-length HSF2 (recHSF2) (UniProt Q03933). The test is described as follows: BLI; Octet Red; biotinylated recombinant HSF2 immobilised at 100 nM on streptavidin biosensors in PBS; analytes diluted in PBS at 100 nM, association 600 s; Kd with a 1:1 stoichiometry model, global fit with Rmax unlinked by sensor; both purified.
In test [4] the target is HSF2, endogenous human (SH-SY5Y) (human (endogenous in SH-SY5Y)) (UniProt Q03933). Briefly: co-IP; endogenous proteins; SH-SY5Y cells lysed in Lysis buffer A; IP with anti-HSF2; immunoblot.
Test [5] concerns the target human HSF2-YFP (human) (UniProt Q03933). The test is described as follows: fluorescence three-hybrid assay (F3H); BHK cells with a stably integrated Lac-operator array, transfected with GBP-LacI, YFP-HSF2 and CBP-HA or EP300-HA; co-recruitment at the LacO array seen by confocal microscopy (anti-HA or anti-CBP staining).
Test [6] shares this target. The test is described as follows: co-IP; HEK 293 cells transfected with YFP-tagged hHSF2 and HA-tagged CBP or EP300; HSF2 precipitated with GFP-Trap, Trap-A control beads; CBP or EP300 detected with anti-HA.
In another test the target is CBP KIX-GST, wild type (UniProt P45481). Briefly: co-IP; in vitro interaction of wild-type or mutated CBP KIX-GST and SNAP-HSF2 recombinant proteins produced in bacteria and reticulocyte lysates; IP GST; immunoblot.

Results are given in words; binding and its absence hold for the method and conditions named. For some of these results: In cells and extracts the contact can be indirect. Some results given as binding are weak or reduced against the parent protein; the word gives no strength.

As to “CBP (CREB-binding protein), endogenous mouse (from UniProt P45481 1-2441) (enzyme)”, the binding entry in test [1] and in test [2] was “binds” throughout.

In the case of “CBP Bromodomain (1096-1205), 6 His-tagged (from UniProt P45481 1096-1205) (domain or fragment)”, the binding result in test [3] is reported as “no binding (tested: 100 nM)”. Still for that read-out and setting: for “CBP HAT domain (1322-1700), 6 His-tagged (from UniProt P45481 1322-1700) (domain or fragment)” the value was “no binding (tested: 100 nM)”; for “CBP PHD domain (1280-1321), 6 His-tagged (from UniProt P45481 1280-1321) (domain or fragment)”, “binds”; for “CBP RING domain (1205-1279), 6 His-tagged (from UniProt P45481 1205-1279) (domain or fragment)”, “no binding (tested: 100 nM)”. With “CBP, endogenous human (SH-SY5Y) (from UniProt Q92793 1-2442) (enzyme)”, the binding result in test [4] was “binds”. As to “CBP-HA (from UniProt Q92793 1-2442) (enzyme)”, the binding entry with human HSF2-YFP (human) [5] and with human HSF2-YFP (human) [6] was “binds” each time. For the substance “EP300, endogenous human (SH-SY5Y) (from UniProt Q09472 1-2414) (enzyme)”, the binding result in test [4] is recorded as “binds”.

On to “EP300-HA (from UniProt Q09472 1-2414) (enzyme)”, for which the binding result in the test with human HSF2-YFP (human) [5] and with human HSF2-YFP (human) [6] was “binds” each time. Consider “SNAP-HSF2 recombinant protein (from UniProt Q03933 1-536)”, for which, in the test with CBP KIX-GST, wild type, the binding result is “binds”.

The values above are taken from publication PMC9668993, “CBP-HSF2 structural and functional interplay in Rubinstein-Taybi neurodevelopmental disorder” (Nature Communications, 2022).
